Data reported in PubChem BioAssay AID485344 (National Center for Advancing Translational Sciences (NCATS), 2010).
Screen size: about 340,000 compounds; about 6,900 (2%) were called active. Rule as the data show it: active = inhibition above about 30%; inactive = below that, where a call was filed. This is a selection; strong and weak results do not stand in their true shares. The source gives no active or inactive call for entries shown without one. Some structures have more than one record in an assay (separate samples or runs), and their calls can disagree.

Molecular target: D(2) dopamine receptor (Homo sapiens) (UniProt P14416)
Chain of UniProt P14416 (P14416 whole entry, looked up): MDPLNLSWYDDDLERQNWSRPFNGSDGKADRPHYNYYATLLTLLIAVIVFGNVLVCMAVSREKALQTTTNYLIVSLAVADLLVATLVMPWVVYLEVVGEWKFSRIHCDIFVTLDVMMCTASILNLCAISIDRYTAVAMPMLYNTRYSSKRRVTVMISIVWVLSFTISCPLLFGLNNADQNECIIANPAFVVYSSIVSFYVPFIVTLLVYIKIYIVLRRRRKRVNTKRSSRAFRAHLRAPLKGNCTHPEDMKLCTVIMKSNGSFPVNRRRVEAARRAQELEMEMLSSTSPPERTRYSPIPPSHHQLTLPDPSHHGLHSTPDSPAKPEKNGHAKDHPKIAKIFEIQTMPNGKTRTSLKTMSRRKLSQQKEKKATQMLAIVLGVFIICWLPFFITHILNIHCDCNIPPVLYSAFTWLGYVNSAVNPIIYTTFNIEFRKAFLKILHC
Assay: HTS Assay for Allosteric Antagonists of the Human D2 Dopamine Receptor: Primary Screen for Antagonists; also: 0% is about no effect
Settings: HEK293 TREx D2 cells, calcium flux, dopamine EC80; at 10 µM; stronger effect = higher value
Method in brief: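 Overnight-induced (tetracycline, 30 C) HEK293 T-REx cells carrying force-coupled D2 receive a no-wash calcium dye, then compound, then EC80 dopamine at 180 s; signals are read kinetically throughout.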

Structure (SMILES)	inhibition
O=C(COc1ccccc1)N(Cc1cccnc1)c1nc2ccc(F)cc2s1	1.3%
COc1ccc(-c2cc(C(F)(F)F)n3nc(C(=O)NCC45CC6CC(CC(C6)C4)C5)cc3n2)cc1	16.1%
O=C(CN1C(=O)COc2ccc(S(=O)(=O)N3CCOCC3)cc21)N1CCN(c2ccccc2)CC1	10.9%
COCCCNC(=O)c1ccc2c(=O)n(Cc3ccc(OC)cc3)c(=O)[nH]c2c1	3.07%
Cc1oc2ncn(C)c(=O)c2c1C(=O)NCCCN1CCCC(C)C1 (centres undefined)	-1.61%
O=C(Nc1ccc(Br)cc1F)c1ncoc1-c1ccco1	-1.04%
O=S(=O)(c1cc(Cl)ccc1Cl)N1CCc2ccccc21	active: 37.4%
COc1ccc(-n2ncc(C(=O)N3CCc4ccccc4C3)c2C2CCN(C(=O)OC(C)(C)C)CC2)cc1	2.14%
O=C(CCN1CCc2ccccc2C1)Nc1ccc2c(c1)OCO2	active: 58.5%
Cc1cc(C)cc(NS(=O)(=O)c2ccc3c(c2)CCCN3C(=O)C2CCC2)c1	-20.3%
Cc1cc(C)c(NC(=O)C2CCN(c3nnc(C)c4c(C)n(-c5ccccc5)nc34)CC2)c(C)c1	3.77%
COc1ccc(CNC(=O)C(C)n2ccc3cc(S(=O)(=O)N4CCCC4)ccc32)cc1OC (centres undefined)	3.12%
COc1ccccc1NC(=O)C1=C(C)Nc2nc(SCc3ccccc3C)nn2C1CC(C)C (centres undefined)	-1.27%
O=C(CSc1nccn1Cc1ccc(Cl)cc1)Nc1ccc2c(c1)OCCO2	1.9%
COc1cccc(C(c2c(O)cc(C)n(Cc3ccco3)c2=O)N2CCN(c3ccccc3)CC2)c1 (centres undefined)	-15.9%
COc1cc(Cl)c(C)cc1NC(=O)Cn1ncc2c([nH]c3ccccc32)c1=O	-2.32%
CCc1ccccc1NC(=O)c1ccc2c(c1)N(Cc1cc(C)ccc1C)C(=O)c1ccccc1S2(=O)=O	10.3%
COC(=O)c1cc2sccc2n1Cc1nc(-c2ccc(Cl)cc2)oc1C	-9.05%
Cc1cc(C)n(C(C)CC(=O)NCc2ccc(N(C)C)cc2)n1 (centres undefined)	8.63%
CCOC(=O)c1[nH]ncc1CN1CCCC(C(=O)c2cc(Cl)ccc2OC)C1 (centres undefined)	active: 72.9%
COc1ccc(OC)c(NC(=O)CSc2nc3ccccc3nc2N2CCCCC2)c1	4.07%
COc1ccc(NC(=O)COc2ccc(S(=O)(=O)NC3CCCCC3)cc2)cc1OC	-10.1%
O=C(Nc1ccccc1)c1ccc(Br)c(S(=O)(=O)N2CCCCC2)c1	-1.28%
COc1ccc(NC(=O)C2CCC(CNS(=O)(=O)c3ccc(Br)s3)CC2)cc1OC (centres undefined)	-0.785%

Structure (SMILES)	inhibition
CCCC(=O)OCc1cnc(C)c2oc(=O)c(C(=O)Nc3ccccc3)cc12	-0.276%
CC(NC(=O)CCNS(=O)(=O)c1cccc2nsnc12)c1ccccc1 (centres undefined)	2.29%
Cc1ccc2c(=O)cc(CSCC(=O)Nc3nnc(C)s3)[nH]c2c1	21%
O=C(Nc1cccc(Cl)c1)c1cnc[nH]1	9.12%
COc1ccc(Br)cc1C1Sc2ccccc2NC2=C1C(=O)c1ccccc12 (centres undefined)	-22.8%
O=C(COc1ccccc1)Nc1nnc(S(=O)(=O)N2CCCC2)s1	19.9%
CCOc1ncccc1C(=O)N1CCN(Cc2ccc3c(c2)OCO3)CC1	active: 74.8%
O=C(OCC1CCCO1)c1ccc2c(c1)N(Cc1ccccc1Cl)C(=O)c1ccccc1S2(=O)=O (centres undefined)	4.6%
O=C(Nc1ccc2oc(-c3ccc4ccccc4c3)nc2c1)c1ccccc1F	-23.8%
COc1ccccc1NC(=O)C(Cc1ccccc1)NS(=O)(=O)c1ccc2c(c1)c(=O)n(C)c(=O)n2C (centres undefined)	22.2%
CCOc1ccc(-n2c(=O)c3c4c(sc3n(CC(=O)Nc3cccc(C(F)(F)F)c3)c2=O)CCCCC4)cc1	2.97%
O=C(NCc1ccc(F)cc1)c1c(O)nc2ccccn2c1=O	-12.5%
Cc1cc(Nc2cccc(C(F)(F)F)c2)nc2ccc(NC(=O)c3ccc(=O)[nH]c3)cc12	0.428%
CCCCOc1cccc(NC(=O)CSc2nnc(C)s2)c1	2.06%
OC(COc1ccccc1)CN1CCN(Cc2ccc3c(c2)OCO3)CC1 (centres undefined)	active: 35.9%
CN(Cc1ccccc1)c1ncnc2onc(-c3ccc(F)cc3)c12	2%
COc1ccc(-c2csc(NC(=O)CN3C(=O)NC4(CCCC4)C3=O)n2)cc1	active: 38.3%
Cc1ccc(CS(=O)(=O)c2ncc(Cl)c(C(=O)Nc3nc4ccc(F)cc4s3)n2)cc1	-10.7%
COC(=O)[C@H]1[C@H]2C[C@H]3c4[nH]c5ccccc5c4CCN3C[C@@H]2CC[C@@H]1O	active: 43.4%
CCOC(=O)c1c(S(=O)(=O)NCC(=O)NCc2cccc(C)c2)c(C)n(C)c1C	11.2%
Cc1ccc(-c2nc3c(c(SCC(=O)Nc4ccccc4Cl)n2)Cc2c(CO)cnc(C)c2O3)cc1	-18.6%
CCCCN(C)C(=O)C1CCC(CNS(=O)(=O)c2ccc(Cl)cc2)CC1 (centres undefined)	-8.47%
CCC(Oc1ccccc1)C(=O)Nc1cc(-c2ccccc2OC)nn1-c1ccccc1 (centres undefined)	-4.94%
COCCNc1nc2c(S(=O)(=O)c3ccc(C)c(C)c3)nnn2c2ccc(Cl)cc12	9.87%

Structure (SMILES)	inhibition
Cc1nc2nncn2c(NCc2ccc(F)cc2)c1C	-11.8%
COc1cc(OC)cc(C(=O)Nc2ccc(S(=O)(=O)Nc3ncccn3)cc2)c1	-19.3%
Cc1ccc(NC(=O)CCS(=O)(=O)c2cc3c4c(c2)CCN4C(=O)CC3)c(C)c1	9.08%
O=C(NCc1ccc2c(c1)CCN2C(=O)c1ccc(Cl)cc1)c1cccc(F)c1	-20.9%
CCc1noc(-c2ccc(N3CCCCC3C)c([N+](=O)[O-])c2)n1 (centres undefined)	18.1%
O=C1OC2(c3ccccc31)c1cc(I)c(O)c(I)c1Oc1c2cc(I)c(O)c1I	active: 53.3%
CC(=O)Nc1ccccc1/C=C/c1ccc2c(C)ccc(O)c2n1	active: 33.2%
COc1ccc(CCNC(=O)CSc2nc(-c3ccc(F)cc3)cc(C(F)(F)F)n2)cc1OC	1.78%
Cc1cccc(C(=O)Nc2nnc(S(=O)(=O)N(C)Cc3ccco3)s2)c1	7.47%
Cc1ccc(NC(=O)CN2C(=O)C3(SCC(=O)N3c3cccc(Cl)c3)c3ccccc32)cc1C (centres undefined)	4.75%
Cc1ccc(NS(=O)(=O)c2ccc3c(c2)CCCN3C(=O)C2CCC2)cc1Cl	-15%
COc1cccc(NC(=O)CC(C)S(=O)(=O)c2ccc3c(c2)NC(=O)CO3)c1 (centres undefined)	-8.82%
Cc1c(Cl)cccc1NC(=O)c1ncn(-c2ccccc2)n1	-0.638%
O=C(O)c1cccc(-n2c(-c3cnccn3)n[nH]c2=S)c1	active: 30.3%
Cc1ccc(-c2csc(=Nc3ccc(F)cc3)n2Cc2ccc3c(c2)OCO3)cc1C	6.12%
CCOc1ccccc1NS(=O)(=O)c1ccc(-c2cnc(C3CC3)o2)cc1	5.17%
Cc1ccc(-c2ccc(=O)n(CC(=O)Nc3cccc(C#N)c3)n2)cc1	-15.7%
CCOc1ccc(-c2nc3c(c(SCC(=O)N4CCCCC4)n2)Cc2ccccc2O3)cc1	9.14%
COc1ccc(Cn2nnnc2C(C(C)C)N2CCN(c3ccccc3OC)CC2)cc1 (centres undefined)	active: 53%
O=C(C1CCCN(S(=O)(=O)c2ccc(Br)s2)C1)N1CCN(c2ccccc2)CC1 (centres undefined)	12.5%
CNC(=O)C1CCC(Cn2c(=O)c3sccc3n(CC(=O)NCc3ccc(F)cc3)c2=O)CC1 (centres undefined)	-9.38%
CC(=O)N1CCCc2cc(S(=O)(=O)N3CCCC(C(=O)Nc4cc(Cl)ccc4C)C3)ccc21 (centres undefined)	9.93%
CCc1ccc2c(CN3CCC(C(=O)OC)CC3)cc(=O)oc2c1	active: 106%
COc1ccc(NC(=O)c2ccc3c(=O)n4nc(Nc5cccc(Cl)c5C)sc4nc3c2)cc1	1.94%

Structure (SMILES)	inhibition
Cc1ccc(C2CCN(C(=O)c3cnn(-c4ccc(C)cc4)c3C3CCN(C(=O)OC(C)(C)C)CC3)C2)cc1 (centres undefined)	5.42%
C=Cc1ccc(Cn2c(C(=O)O)c(CNCc3ccccc3)c3ccc(C)cc32)cc1	4.84%
CC(=O)Nc1ccc(NC(=O)c2oc3ccc4c(c3c2C)C(=O)CC(C)(C)O4)cc1	-4.86%
O=c1c(N2CCc3ccccc3C2)csc2ccccc12	-11.3%
O=C(NCCc1ccccc1)c1ccc2c(c1)N(Cc1ccccc1F)C(=O)c1ccccc1S2=O (centres undefined)	5.24%
COc1ccc(C(C(=O)NC2CCCC2)N(CCC(C)C)C(=O)CCC(=O)Nc2cc(C)on2)cc1 (centres undefined)	active: 34.8%
N#C/C(=C\c1ccc(Cl)cc1)c1nc(-c2cc3c(ccc4ccccc43)oc2=O)cs1	3.98%
O=C(Cn1c(=O)n(-c2ccccc2)c(=O)c2sc3ccccc3c21)NC1CCCC1	-7.32%
Cc1ccc(C)c(Nc2nn3c(=O)c4ccc(C(=O)NCc5cccs5)cc4nc3s2)c1	-23.8%
COc1cccc(N2CCN(c3ncnc4onc(-c5ccc(Cl)cc5)c34)CC2)c1	22.1%
CN(C1CCCCC1)S(=O)(=O)c1ccc2c(c1)c(=O)c(C(=O)NCc1ccc(Cl)cc1)cn2C	-2.42%
O=C(CN1C(=O)CC(c2ccc(F)cc2)=Nc2ccccc21)NCc1ccccc1Cl	-9.98%
O=C(Nc1ccc2nc(SCC(=O)N3CCOCC3)sc2c1)c1ccc(Cl)cc1	-10.3%
O=C(c1ccccc1)N1CCCCC1CCN1CCCCC1 (centres undefined)	-13.2%
CCN(Cc1ccccc1)C(=O)C(CC(C)C)NS(=O)(=O)c1ccc2c(c1)CCN2C(C)=O (centres undefined)	0.723%
CCOc1ccc(NC(=O)C23CC4CC(C2)CC(c2ccccc2)(C4)C3)cc1	active: 31.3%
Cc1cccc(N2CCN(C(=O)c3nn(C)c4c3CS(=O)(=O)c3ccccc3-4)CC2C)c1 (centres undefined)	28.1%
Cc1ccc(-n2c(=O)c3ccccc3n(CC(=O)Nc3cccc(C(F)(F)F)c3)c2=O)cc1	5.81%
COc1cc(Cl)c(NS(=O)(=O)c2ccc(-c3coc(C)n3)cc2)c(OC)c1	21.5%
CC1CCCCN1CCCNC(=O)Cn1ncc2c3ccccc3n(Cc3ccccc3F)c2c1=O (centres undefined)	0.207%
Cc1ccc(-c2cc(C(F)(F)F)c(C#N)c(SCC(=O)Nc3ccccc3F)n2)cc1	0.682%
CCCOC(=O)c1cc(-c2ccc(C=O)o2)ccc1Cl	active: 30.7%
